Measurements as given in PMC4336329 (PLoS ONE, 2015).
About 2,200 (0.71%) of roughly 310,000 compounds showed an effect of 50% or more. Effects have a minus sign here. This is one part of the list.

target: human ether-à-go-go-related gene (hERG) potassium channel (human, UniProt Q12809); test: primary screen, population patch clamp on CHO cells stably expressing hERG
Sequence (Q12809 whole entry, looked up): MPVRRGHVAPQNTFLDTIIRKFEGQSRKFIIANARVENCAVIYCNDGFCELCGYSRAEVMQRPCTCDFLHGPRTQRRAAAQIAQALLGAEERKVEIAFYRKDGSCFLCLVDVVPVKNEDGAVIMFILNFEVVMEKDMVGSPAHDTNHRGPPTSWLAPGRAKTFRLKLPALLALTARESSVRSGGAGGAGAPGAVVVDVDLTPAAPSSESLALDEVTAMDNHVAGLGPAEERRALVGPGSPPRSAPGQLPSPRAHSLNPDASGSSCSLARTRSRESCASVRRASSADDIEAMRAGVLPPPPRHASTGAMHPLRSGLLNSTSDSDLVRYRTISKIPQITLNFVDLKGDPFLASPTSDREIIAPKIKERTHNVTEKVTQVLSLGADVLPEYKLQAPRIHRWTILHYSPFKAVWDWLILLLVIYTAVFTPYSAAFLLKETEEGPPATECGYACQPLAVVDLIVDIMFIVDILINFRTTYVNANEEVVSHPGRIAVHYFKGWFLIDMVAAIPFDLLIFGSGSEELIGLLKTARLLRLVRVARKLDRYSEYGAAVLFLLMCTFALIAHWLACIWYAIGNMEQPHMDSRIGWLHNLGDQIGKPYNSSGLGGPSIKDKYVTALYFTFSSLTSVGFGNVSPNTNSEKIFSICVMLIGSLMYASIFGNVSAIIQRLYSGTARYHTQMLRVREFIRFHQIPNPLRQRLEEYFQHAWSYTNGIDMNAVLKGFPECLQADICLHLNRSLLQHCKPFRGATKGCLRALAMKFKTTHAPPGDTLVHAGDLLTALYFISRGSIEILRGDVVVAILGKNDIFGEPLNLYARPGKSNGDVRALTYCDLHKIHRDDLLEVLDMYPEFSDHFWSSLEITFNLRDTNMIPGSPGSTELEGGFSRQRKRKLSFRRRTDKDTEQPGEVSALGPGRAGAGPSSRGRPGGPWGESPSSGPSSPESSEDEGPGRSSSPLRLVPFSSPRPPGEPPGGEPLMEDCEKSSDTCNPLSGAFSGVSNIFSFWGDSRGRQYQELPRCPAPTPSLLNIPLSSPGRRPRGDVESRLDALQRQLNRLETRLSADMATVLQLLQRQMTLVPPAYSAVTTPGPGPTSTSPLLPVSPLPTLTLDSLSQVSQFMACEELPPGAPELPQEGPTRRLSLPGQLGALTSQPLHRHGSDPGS

SMILES	hERG current change (%, negative = inhibition) at 1uM [%]
C=CC(=O)NCCCc1cc(C(C)(C)C)c(O)c(C(C)(C)C)c1	10.4
CN(C)C(=O)c1cc(F)ccc1Sc1cc(Cl)ccc1Cl	5.79
Cc1ccc(SCCc2ccc(C)nc2)cc1	-1.69
CCOC(=O)C1CCN(CC(=O)c2c(C)[nH]c3ccccc23)CC1	-19.1
COc1ccc(CCNC(=O)Cn2nnc(C(=O)Nc3ccc(Br)cc3)c2N)cc1OC	8.59
CCCCCCCCNC(=O)CCNC(=O)c1ccc(C(C)(C)C)cc1	8.67
O=C1COCC(=O)N1CCc1c[nH]c2ccccc12	17
O=C(CP(=O)(O)CC(=O)c1ccccc1)c1ccccc1	11.2
O=C(c1ccc(Cl)nc1)N1CCN(C/C=C/c2ccccc2)CC1	-7.89
O=C(Nc1cccc(Cl)c1)C1CCCN(c2cnccn2)C1 (centres unmarked)	19.7
O=C(CCc1nnc(C2CCCCC2)o1)N1CCN(c2ccccc2F)CC1	-3.35
COc1ccc(NC(=O)c2ccc(C#N)cc2)cc1NS(=O)(=O)c1ccc(F)cc1	8.58
Oc1cccc(C2c3[nH]c4ccccc4c3CCN2Cc2ccc3c(c2)CCO3)c1 (centres unmarked)	22.2
NC(=O)c1nsc(C(=O)N(Cc2ccco2)C(C(=O)NCc2ccc(F)cc2)c2ccc(O)cc2)c1N (centres unmarked)	1.02
CCOc1ccccc1Nc1ncnc2ccc(Br)cc12	19.1
Cc1ccc(NC(=O)CN(C)C(=O)c2ccc(Cl)nc2)cc1	2.13
CCOC(=O)C1CCN(C(=S)NC2CCCC2)CC1	13.2
COc1cc(OC)cc(C(=O)OCC(=O)N(C)c2ccccc2)c1	9.32
C/C(CC(=O)Nc1ccccn1)=N\NC(=O)C(=O)Nc1cccc(Cl)c1C	7.45

SMILES	hERG current change (%, negative = inhibition) at 1uM [%]
CCOc1ccc(S(=O)(=O)Nc2cccc(C(=O)N3CCN(c4ccc(OC)cc4)CC3)c2)cc1	0.849
CN(Cc1ccco1)C(=O)C1CCCN(c2ncnc3c2nc2n3CCCCC2)C1 (centres unmarked)	13
CCN(CC)S(=O)(=O)c1ccc(C(=O)NCCN2C(=O)S/C(=C\c3cccnc3)C2=O)cc1	4.05
Cc1ccc(NC(=O)c2cccs2)cc1S(=O)(=O)N(C)C	11.7
CCN(Cc1ccncc1)C(=O)CCc1nnc(CCc2ccc(OC)cc2)o1	6.96
CN(c1ccc(C(=O)NCc2ccccn2)cc1)S(C)(=O)=O	2.05
N#Cc1c(NCc2ccccc2)ccnc1NCc1cccnc1	2.43
O=C(O)CC[C@@H](C(=O)O)N1C(=O)c2ccccc2C1=O	3.58
O=C(Nc1ccc(OC(F)(F)F)cc1)c1ccc(S(=O)(=O)N2CCOCC2)o1	-5.59
Cc1ccccc1/C=C1\SC(=S)N(/N=C/c2cc([N+](=O)[O-])ccc2O)C1=O	17.2
COc1cc(C(=O)Nc2ccc3c(c2)N(C(=O)CCN(C)C)c2ccccc2CC3)cc(OC)c1OC.Cl	11.7
O=C(O)c1cc(NCc2c(F)cccc2Cl)ccc1N1CCOCC1	-15.3
FC(F)(F)c1cccc(-c2noc(CN3CCOCC3)n2)c1	1.92
CC1CCCN(S(=O)(=O)c2ccc3oc(=O)ccc3c2)C1 (centres unmarked)	7.95
CC(C)c1ccc2c(c1)[C@H]1OCC[C@H]1[C@@H](c1cccs1)N2	4.11
N#CC1=C(N)OC2=C(C(=O)CCC2)C12CCN(C(=O)OCc1ccccc1)CC2	-11.9
c1ccc(OCc2nnc3n2CCCCC3)cc1	16.5
Cc1[nH]n(-c2ccccc2)c(=O)c1N=Nc1ccc2c(c1)OCO2	11.1
CCOc1ccnc(OCC)c1Br	32.8

SMILES	hERG current change (%, negative = inhibition) at 1uM [%]
O=C(COC(=O)c1cc[n+]([O-])cc1)Nc1ccc(F)c([N+](=O)[O-])c1	6.84
CCOC(=O)C1CCN(c2nc(-c3ccc(C)cc3)nc3ccccc23)CC1	17.5
Cc1cc(/C=C2\C(=O)NC(=O)N(Cc3ccco3)C2=O)c(C)n1-c1ccc(O)cc1	10.5
Cc1cc(C(=O)NCc2csc(-c3ccccc3)n2)no1	9.64
O=C(CN1C(=O)S/C(=C\c2ccccc2)C1=O)Nc1cc([N+](=O)[O-])ccc1O	11.8
CN(CC(=O)Nc1ccccc1Cl)C(=O)c1ccccc1Sc1ccccc1C#N	16.1
CCN(CC)c1ccc2cc(C(=O)NNC(=O)c3ccc(S(=O)(=O)N4CCCCC4)cc3)c(=O)oc2c1	21.2
COC(=O)c1ccc(NC(=O)CCN2CCN(c3ccccc3)CC2)cc1	7.64
CC(=O)N1CCn2c3c(c4cc(C)ccc42)CCCC31 (centres unmarked)	8.2
Cl.c1cc(CNC23CC4CC(CC(C4)C2)C3)ccn1	1.35
Cc1c(CC(=O)NCC(=O)NCC(=O)O)c(=O)oc2cc3c(cc12)CCC(C)(C)O3	16.4
CCn1c(CNC(=O)c2ccc(OC)c(OC)c2)nnc1SCC(=O)Nc1ccccc1	4.89
CN(CC(CC(=O)Nc1nncs1)c1ccccc1)S(=O)(=O)c1ccccc1 (centres unmarked)	9.47
COC(=O)c1ccc(CSc2ncnc3sc(C)c(C)c23)o1	15.1
Clc1cccc(Cl)c1NC1=NCCC1	10.7
COC(=O)Cc1c(C)nc2nc(-c3ccccc3)[nH]n2c1=O	11.9
CC(=O)Nc1ccc(C(=O)OCC(=O)NC(=O)NC(C)(C)C)cc1	12
COc1cc(C2c3[nH]c4ccccc4c3C[C@H]3C(=O)N(CCO)CC(=O)N23)cc(OC)c1OC (some centres unmarked)	4
